In PubChem BioAssay AID624417 (National Center for Advancing Translational Sciences (NCATS), 2012):
Screen size: about 410,000 compounds; about 6,400 (1.6%) were called active. Inconclusive results, whose numbers are uncertain, are shown with a selection of clear calls. The call rests on the fitted dose curve; in most records, active means well fitted inhibition curve with a large enough effect; inconclusive means small, poorly fitted or top-dose-only effect; inactive means no such curve, though single readings can be large or run the other way. No potency is given beside an inconclusive call; the fits are too rough.

Biological target: Glucagon-like peptide 1 receptor (Homo sapiens) (UniProt P43220)
Assay: qHTS of GLP-1 Receptor Inverse Agonists (Inhibition Mode); further: nearly all actives have a fitted effect of over 55% in size
Conditions: HEK293 GLP-1R CRE-luciferase, luminescence, 24 h, GLP-1R form is constitutively active; activity change, negative = inhibition: at 38.3 µM (top of the series) unless noted
Summary of the method: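 Luminescence readout: a drop in cAMP-driven luciferase signal flags inverse agonism at a constitutively active GLP-1R stably expressed in HEK293. Compound exposure lasted 24 hr at 37 deg C, 5% CO2.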
On the % scale 0 is the no-effect control and ±100 the full control effect; potency means the concentration at half of the fitted maximal effect; tags describe the fitted curve by direction and shape.

UniProt P43220, sequence (P43220 whole entry, looked up): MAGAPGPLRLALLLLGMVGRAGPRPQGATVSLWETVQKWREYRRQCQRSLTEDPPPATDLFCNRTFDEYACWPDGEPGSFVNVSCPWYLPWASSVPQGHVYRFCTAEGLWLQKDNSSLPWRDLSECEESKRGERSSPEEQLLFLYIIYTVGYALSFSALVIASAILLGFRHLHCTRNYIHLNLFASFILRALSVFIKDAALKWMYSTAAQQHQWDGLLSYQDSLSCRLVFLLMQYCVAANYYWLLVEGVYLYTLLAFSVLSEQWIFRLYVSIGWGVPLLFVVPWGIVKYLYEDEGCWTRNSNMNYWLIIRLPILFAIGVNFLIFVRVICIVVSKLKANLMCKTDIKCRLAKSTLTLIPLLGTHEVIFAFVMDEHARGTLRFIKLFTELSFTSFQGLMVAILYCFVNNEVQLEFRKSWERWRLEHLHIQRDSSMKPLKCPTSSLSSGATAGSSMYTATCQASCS

Structure (SMILES) | Potency | activity change, negative = inhibition
CC(=O)Nc1nonc1-c1nnc(SCC(=O)Nc2ccc(C)cc2)n1-c1ccccc1 | inconclusive [inhibitor, partial curve, poor fit] | 
CCCN1CCN(c2ncnc3sc(C(=O)Nc4ccc(C(C)C)cc4)c(C)c23)CC1 | inconclusive [inhibitor, single point] | 
CCOC(=O)/C(=N/Nc1ccccc1)N1CCCc2ccccc21 | inconclusive [inhibitor, partial curve, poor fit] | 
CCOC(=O)c1sc2cccc(F)c2c1S(=O)(=O)NCc1ccccc1Cl | inconclusive [inhibitor, single point] | 
O=C(N/N=C/c1ccccn1)NC12CC3CC(CC(C3)C1)C2 |  | inactive: -25.2%
Cc1cc(C)n(-c2nc(Nc3ccccc3C(F)(F)F)nc(-n3nc(C)cc3C)n2)n1 | inconclusive [inhibitor, single point] | 
CC(=O)Oc1ccccc1C(=O)Nc1ccccc1C(=O)N1CCCC1 | inconclusive [inhibitor, partial curve] | 
Cc1cc(O)c(C(C)C)cc1NC(=S)Nc1cc(C(C)C)c(O)cc1C | inconclusive [inhibitor, partial curve, poor fit] | 
CC1(c2ccccc2)NC(=O)N(CC(=O)Nc2cc(Cl)ccc2N2CCOCC2)C1=O (stereo not given) | inconclusive [inhibitor, single point] | 
O=C(CN1CCC(Cc2ccccc2)CC1)NC(=O)NC1CCCCC1 | inconclusive [inhibitor, partial curve, poor fit] | 
CN(C)S(=O)(=O)c1cccc(NC(=O)CN2C(=O)C3C4C=CC(C4)C3C2=O)c1 (stereo not given) |  | inactive: 4.39%
CCCN1C2CCCC1CC(NC(=S)Nc1cccc(C)c1)C2 (stereo not given) | inconclusive [inhibitor, partial curve] | 
CCc1ccc(CN(C)C(=O)CCc2nnc(Cc3cccc(C)c3)o2)nc1 | inconclusive [inhibitor, partial curve, poor fit] | 
CCOC(=O)C1=CCN(S(=O)(=O)c2ccc(C)cc2)C1c1ccc(C(C)C)cc1 (stereo not given) | inconclusive [inhibitor, single point] | 
Cc1ccc(NC(=S)N(CCC(C)C)C(C)c2ccncc2)c(Cl)c1 (stereo not given) | active: 10 µM | 
COc1ccccc1C(=O)Nc1ccccc1OCc1cc(=O)n2c(C)csc2n1 |  | inactive: 5.56%
O=C(OCCN1CCN(c2ncc(C(F)(F)F)cc2Cl)CC1)c1ccc(Cl)cc1 |  | inactive: -1.36%
O=C(COc1ccc(Cl)cc1)NCCN1CCCCC1 |  | inactive: -7.95% [at 7.66 µM]
COc1ccccc1C(O)(c1ccccc1)c1ccccc1OC | inconclusive [inhibitor, single point] | 
Cc1ncc(CO)c2c1Oc1nc(-c3ccccc3F)nc(SCC(=O)N(C)c3ccccc3)c1C2 | inconclusive [inhibitor, partial curve, poor fit] | 
CCOC(=O)C1(CCOc2ccccc2)CCN(Cc2ccc(C(=O)OC)cc2)CC1 | inconclusive [inhibitor, partial curve] | 
CC12C(=O)N(c3nccs3)C(=O)C1(C)C1CCC2O1 (stereo not given) | inconclusive [inhibitor, partial curve, poor fit] | 

Structure (SMILES) | Potency | activity change, negative = inhibition
O=C(/C=C/c1cccs1)NCc1cccs1 |  | inactive: -6.33%
CCc1cccc(NC(=O)COC(=O)c2cn(CC)c3nc(C)ccc3c2=O)c1 |  | inactive: 8.41%
O=[N+]([O-])c1cccc(CN2CCC(Cc3ccccc3)CC2)c1 | inconclusive [inhibitor, partial curve, poor fit] | 
O=C(Nc1ccc(F)cc1)Nc1ccc(NC(=O)c2ccccc2O)cc1 | inconclusive [inhibitor, full curve, poor fit] | 
COC(=O)CC1(C(=O)OC)Oc2ccc(Br)cc2C(=O)N1c1cccc(Cl)c1Cl (stereo not given) | inconclusive [inhibitor, partial curve, poor fit] | 
COc1cc(C(=O)NCC(c2ccco2)N2CCCC2)ccc1OCc1ccccc1 (stereo not given) | inconclusive [inhibitor, partial curve, poor fit] | 
Cc1ccc(NC(=O)CSc2ccccc2)cc1S(=O)(=O)N1CCCCC1 | active: 7.94 µM | 
CC(C)NC(=O)c1ccc(-c2ccccc2C(F)(F)F)o1 |  | inactive: 8.65%
COc1ccc(Nc2ccc3c(c2)=NC2(CCCCC2)[N+]=3[O-])cc1 | inconclusive [inhibitor, single point] | 
O=[N+]([O-])c1ccccc1CNC(Cc1ccccc1)c1ccccc1 (stereo not given) | inconclusive [inhibitor, single point] | 
CCCCCCCCCCOC(=O)Cn1c(COc2ccccc2)[n+](C)c2ccccc21 | inconclusive [inhibitor, single point] | 
CCc1ccc(-n2c(=O)c3c4c(sc3n(CC(=O)c3ccc(F)cc3)c2=O)CCC4)cc1 |  | inactive: -1.44%
Cc1ccc(-n2nc3c(=O)n(CC(=O)c4ccc(F)cc4)nc(C)c3c2C)cc1 | inconclusive [inhibitor, single point] | 
CCC(C)NC(=O)CCCN1C(=O)CCn2nc(-c3cccn3C)cc21 (stereo not given) |  | inactive: 15.4%
N#C/C(=C/c1ccccc1[N+](=O)[O-])c1nc(C2CC2)cs1 |  | inactive: -39.2%
COC(=O)c1c(-c2ccccc2)csc1NC(=O)c1c(-c2ccccc2)noc1C | inconclusive [inhibitor, partial curve, poor fit] | 
COc1ccc(-c2ccc3c(N)c(C(=O)c4ccc(OC)c(OC)c4)sc3n2)cc1 | inactive | 
O=C(CSc1nc(-c2ccccc2)c(-c2ccccc2)o1)N1CCCCC1 | active: 11.2 µM | 
Cc1ccc(S(=O)(=O)N(C)C[C@@H]2OCCCC[C@H](C)Oc3ccc(NC(=O)Nc4ccc(F)cc4)cc3C(=O)N([C@H](C)CO)C[C@H]2C)cc1 | inconclusive [inhibitor, full curve] | 
O=C(NN=Cc1c(O)ccc2ccccc12)c1ccncc1 | inconclusive [inhibitor, full curve, poor fit] | 
NC(=O)CC(NC(=O)c1ccc(Br)cc1)c1ccc(N2CCN(c3ccccn3)CC2)c([N+](=O)[O-])c1 (stereo not given) | inconclusive [inhibitor, single point] | 
CCN(CC)C(=S)NC(=O)c1cccnc1 |  | inactive: 12.9%

Structure (SMILES) | Potency | activity change, negative = inhibition
CCn1c2ccccc2c2cc(NC(=O)c3ccccc3-c3ccccc3C(=O)O)ccc21 | inconclusive [inhibitor, partial curve, poor fit] | 
Cc1ccc(NC2c3ccccc3C(=O)N2c2cccnc2)cc1 (stereo not given) | inconclusive [inhibitor, single point] | 
CC(=O)c1ccc(Nc2cc(C)nc3c(C)cccc23)cc1 | inconclusive [inhibitor, full curve, poor fit] | 
Cc1cc(F)ccc1S(=O)(=O)NCC(c1cccnc1)N1CCc2ccccc21 (stereo not given) | inconclusive [inhibitor, partial curve, poor fit] | 
CN(C)CCO/N=C(\c1ccc(Br)cc1)c1cccnc1 | inconclusive [inhibitor, partial curve, poor fit] | 
CC1(C)NC(=O)N(CC(=O)Nc2cc(C(F)(F)F)cc(C(F)(F)F)c2)C1=O | inconclusive [inhibitor, partial curve, poor fit] | 
O=C(NCCC(=O)N1CCN(Cc2c(F)cccc2Cl)CC1)c1ccc(Cl)cc1 | inconclusive [inhibitor, single point] | 
Cc1c(O)c(=O)n(-c2ccccc2)n1C |  | inactive: 20.4%
COc1ccc(C2CC(c3cccc(Br)c3)=NN2c2ccc(S(N)(=O)=O)cc2)cc1 (stereo not given) | inconclusive [inhibitor, single point] | 
CCOc1ccccc1N=C1SCC(C)N1C(=O)C1CCN(c2ncnc3sc(C)c(C)c23)CC1 (stereo not given) | inconclusive [inhibitor, single point] | 
COc1cccc(C(C)NC(=O)Nc2cccc(C(F)(F)F)c2)c1 (stereo not given) | inconclusive [inhibitor, partial curve, poor fit] | 
CN(C)C(=O)CSc1nnc(-c2cc(-c3cccs3)nc3ccccc23)o1 |  | inactive: 24.1%
O=C(Nc1ccc(-c2csc(Nc3ccccc3)n2)cc1)c1cccc(C(F)(F)F)c1 | inconclusive [inhibitor, full curve, poor fit] | 
CN(C)c1ccc(CNC(=O)c2ccc(Cn3c(SCc4ccccc4)nc4cccnc43)cc2)cc1 |  | inactive: -7.93%
CCC1([N+](=O)[O-])COC(c2ccc(Cl)cc2)OC1 (stereo not given) | inconclusive [inhibitor, single point] | 
COc1cc2oc(=O)ccc2cc1[C@@H](O)[C@@H]1OC(C)(C)OC1(C)C |  | inactive: 12.7%
CCc1c(C2(O)CCCCC2)[nH]c2ccc(C(F)(F)F)cc12 | active: 2.24 µM | 
Oc1[nH]c2ccc(Br)cc2c1N=NC(=S)N1CCOCC1 | inconclusive [inhibitor, full curve, poor fit] | 
S=C(NCc1ccc(Cl)cc1)NC12CC3CC(CC(C3)C1)C2 | active: 8.91 µM | 
COc1ccc(C(C(=O)NC2CCCCC2)N(Cc2ccco2)C(=O)c2snc(C(N)=O)c2N)cc1 (stereo not given) | inconclusive [inhibitor, partial curve] | 
CC(C)(C)c1ccc(C(O)c2ncc(-c3ccc(F)cc3)[nH]2)cc1 (stereo not given) | inconclusive [inhibitor, single point] | 
